Laboratory results reported in the supplement of paper PMC9513381.

B1: B1108 (protein)
chain 1: EVQLVESGGGLVQPGGSLRLSCSASGFTFNNYWMSWVRQAPGKGLEWIANIKQDGSEKYYVDSVKGRFTISRDNAKNSLYLLMNSLRADDTAVYYCARLERWLWGYFDYWGQGSLVTVSS
chain 2: DIVMTQSPDSLAVSLGERATINCKSSQSVLYSSNNKNYLAWYQQKPGQPPKLLIYWASTRESGVPDRFSGSGSGTDFTLTINSLQAEDVAVYYCQQYYSGPPITFGQGTRLEIK
B2: B024 (protein)
chain 1: EVQLVESGGGLVKPGGSLRLSCAASGVTFISYSMNWVRQAPGKGLEWVSSISSSSDYIAYADSVKGRFTISRDNAKNSVYLQMTSLRADDTAVYYCARRGDYGECYDYWGQGALVTVSS
chain 2: DIQMTQSPSSLSASVGDRVTITCQASQDINIYLNWYQQKLGKAPKLLINDASNLQPGVPSRFSGSGSGTDFTFTISSLQPEDIATYYCLQYDNLPRTFGQGTKLEIK
B3: B030 (protein)
chain 1: QVQLQQWGAGLLKPSETLSLTCAVSGGSFSGYYWSWIRQPPGKGLEWIGEIIYSGDTNYNPSLKSRITLSLDTAKNQFSLKLTSVTAADTAVYYCARGLSSGYDWGYWGQGTLVTVSS
chain 2: QSALTQPASVSGSPGQSITISCTGTSSDVGGYNYVSWYQQHPGKAPKLMISDVSKRPSGISNRFSGSKSGNTASLTISGLQAEDEADYYCSSYTSNNSYVFGTGTKVTVL
B4: B031 (protein)
chain 1: B3 chain 1
chain 2: QSALTQPPSASGTPGQRVTISCSGSSSNIGSNFVYWYQQLPGTAPKLLIYSNNQRPSGVPDRFSGSKSGTSASLAISGLRSEDEADYFCAAWDDSLSGYAVFGGGTQLTVL
B5: B1114 (protein)
chain 1: QVQLVQSGAEVKKPGSSVKVSCKASGDSFTAYAMSWVRQAPGRGLEWLGGIVPVFLTTQSSQKFQGRLTITADMSTSTVYMELNSLRSDDTAVYFCARGPVGSPRNYYSYPLAVWGQGTPVTVSS
chain 2: QSALTQPASVSGSPGQSITISCTGTSSDIGAYNFVSWYQQHPGKAPKLVICDVHNRPSGVSNRFSGSKSGTTASLTISGLQAEDEAYYYCSSYRDISSWVFGGGTKLTVL
B6: B1115 (protein)
chain 1: EVQLVESGGGLVQPGGSLRLSCAASGFIVSDSYMTWVRQAPGKGLEWVSLIHSGGSTYYADSVKGRFTITRHYSTNNLYLQMNSLRVEDTAVYYCARDTAASSGYYYNALDVWGQGTTVTV
chain 2: DIQMTQSPSSLSASVGDRVTITCRASQSISNYLNWYQQKPGKAPKLLIFAASSLQSGVPSRFSGSGSGTDFTLTISSLQPEDFATYFCQQSYSTPPTFGQGTKVEIK
B7: B1107 (protein)
chain 1: QVQLVQSGAEVKKPGSSVKVSCKASGGTFSSYAISWVRQAPGQGLEWMGRIIPILGIANYAQKFQGRVTITADKSTTTAYMEMSSLRSEDTAVYYCARGGGYDFRSGYPTPHYYYYYMDVWGKGTTVT
chain 2: DIQMTQSPSSLSASIGDRVTITCQASQDITDYLNWYHHVPGTAPKLLIYDASHLQTGVSSRFSGSGSGTHFNLTISSLQPEDIATYYCQHYDNLSLTFGGGTKVELK
B8: B029 (protein)
chain 1: EVQLVESGGGLIQPGGSLRLSCAASGFTVSANYMTWVRQAPGKGLDWVSVIYPGGSTFYADSVKGRFAISRDKSNNTLYLQMNSLRAEDTAVYYCARGPYPPKDSGFWGQGTLVTVSS
chain 2: DIVMTQSPDSLAVSLGERATINCKSSQSVLYSSNNKNYLAWYQQKPGQPPKLLIYWASTRESGVPDRLSGSGSGTDFTLTISSLQAEDVAVYYCQQYYSAPPTFGQGTKVEIK

Target: SARS-CoV-2 Delta (B.1.617.2) spike RBD
Assay: ELISA binding EC50; higher = weaker binding; ELISA of recombinant human antibody on coated antigen, from 10 µg/ml in fourfold dilutions; four-parameter fit.

Binder | ELISA binding EC50
B1 | > 1 µg/mL
B2 | > 1 µg/mL
B3 | > 1 µg/mL
B4 | > 1 µg/mL
B5 | > 1 µg/mL
B6 | > 1 µg/mL
B7 | > 1 µg/mL
B8 | > 1 µg/mL

Target: SARS-CoV-2 Omicron BA.1 spike protein
Assay: as above

Binder | ELISA binding EC50
B1 | > 1 µg/mL
B2 | > 1 µg/mL
B3 | > 1 µg/mL
B4 | > 1 µg/mL
B5 | > 1 µg/mL
B6 | > 1 µg/mL
B7 | > 1 µg/mL
B8 | > 1 µg/mL

Target: SARS-CoV-2 Wuhan-Hu-1 spike receptor-binding domain
Assay: as above

Binder | ELISA binding EC50
B1 | > 1 µg/mL
B2 | > 1 µg/mL
B3 | > 1 µg/mL
B4 | > 1 µg/mL
B5 | > 1 µg/mL
B6 | > 1 µg/mL
B7 | > 1 µg/mL
B8 | > 1 µg/mL

Recombinant human monoclonal antibodies (heavy:light variable regions). ELISA EC50 on the named antigen, from 10 µg/ml down; IC50 / IC90 against spike pseudovirus on 293T-ACE2 cells, 48 h; lower = stronger. Calls: IC50 above 1,000 ng/ml = non-neutralizing; EC50 above 1,000 ng/ml = non-binder. The source prints 1000 for neutralization that was not reached; it is given as >1000 ng/ml. Only binders of the Wuhan-Hu-1 domain have neutralization values.
